Data taken from US20090104178A1 (published 2009).

Target: Purified recombinant EV CrmD protein (ectromelia virus)

B1: hCCL20 (ligand)
chemokine: not shown
Kd: 4.3 nM
